Marks after values point to notes of the source that are not given here.

The test system of assay [1] is obese GLP1R humanized mice. Kind of assay: Percent body weight change in obese GLP1R humanized mice, comparison of nine ATLs (study 19.2). It is filed as in vivo, mouse. The conditions noted are these: for Percent body weight change from day 0 (mean): 25 mg/kg s.c. single dose. From the text:
To determine body weight lowering effects of anti-GLP1R antibody-tethered-ligands (ATLs) of the invention in obese animals, mice homozygous for the expression of human GLP1R in place of mouse GLP1R (referred to as GLP1R humanized mice) were placed on high-fat diet (60% kcal % fat) for 4 months. Sixty-five, 6-month-old male, GLP1R humanized mice were stratified into ten groups of five to seven mice, based on their day 0 body weights. After the stratification, each group was subcutaneously administered with one of nine an anti-GLP1R ATLs or an isotype control antibody (referred to as Control) at 25 mg/kg on day 0.
At weeks one, two, four, six and eight post administration, body weights of the animals were recorded. Mean±SEM of percent changes in body weight from day 0 at each time point was calculated for each group and are shown in Table 33. Statistical analyses were performed by two-way ANOVA followed by Bonferroni post-hoc tests, comparing the Control group to the other nine groups.

Assay [2] has as its target T1, human GLP1R (Homo sapiens, UniProt P43220). Kind of assay: CRE-Luc cAMP responsive luciferase reporter assay in HEK293/CRE-Luc/hGLP1R cells. On the set-up: engineered to express full-length human GLP1R (GenBank: AAI12127.1) (HEK293/CRE-Luc/hGLP1R); expressed in transfected cells; host or cells: HEK293/CRE-Luc (HEK293/FSC11/pCDNA3.1 + GLP1R, ACL6822). It counts as cell-based. The text has this:
To test the activity of GLP1R agonist linker-payloads (LPs) and anti-GLP1R antibody-tethered ligands (ATLs) of the invention, a cell-based cAMP responsive luciferase reporter assay was developed. To generate the assay cell line, the firefly luciferase gene was placed under the control of four copies of a cAMP response element (4×CRE) located upstream of a minimal promoter and transfected into HEK293 cells and referred to herein as HEK293/CRE-Luc cells. HEK293/CRE-Luc cells were then engineered to express full-length human GLP1R (GenBank: AAI12127.1) (HEK293/CRE-Luc/hGLP1R).
For all assays, cells were seeded into 384-well plates (Falcon #353988) at 6,000 cells/well in assay media (Opti-MEM, 1% FBS, 1×Penicillin-Streptomycin) and incubated overnight at 37° C. Serial dilutions of the anti-GLP1R ATLs and non-binding control ATLs were performed in assay media. Serial dilutions of linker-payloads (LPs) were performed in 100% DMSO (ATCC, #4-X-5), followed by 1:100 dilution in assay media. […]
For the CRE-Luc assay, after a 5-hours incubation at 37° C., luciferase activity was determined by addition of ONE-Glo reagent (Promega, #E6130) followed by measurement of relative light units (RLUs) on EnVision Plate Reader (Perkin Elmer).
(§1) EC50 values for luminescence assays were determined using a four-parameter logistic equation over a 12-point dose response curve (GraphPad Prism).

In assay [3] the target is T1, human GLP1R. As to the kind of experiment: b-arrestin 2 recruitment enzyme fragment complementation assay in HEK293/b-arrestin2/hGLP1R cells. It is filed as cell-based. Also noted: The full-length human GLP1R (NP_002053.3) with a C-terminus fusion to a small b-gal fragment called enzyme donor or ProLink (PK); host or cells: HEK293/b-arrestin2-EA (HEK293/Barrestin clone 2C6/hGLP1R-Prolink1 high sorted, ACL21687).
From the text: To test the recruitment of b-arrestin 1 and b-arrestin 2 to GLP1R upon receptor activation, two enzyme fragment complementation assays were developed. To generate the assay cell lines, b-arrestin 1 fused to the b-galactosidase (b-gal) reporter fragment called enzyme acceptor (EA) (i.e., b-arrestin1-EA) or b-arrestin 2 fused to the b-gal reporter fragment EA (i.e., b-arrestin2-EA) were transduced into HEK293 cells using PathHunter b-Arrestinl Retroparticles (DiscoverX, #83-OT-TB-N-01) or PathHunter b-Arrestin2 Retroparticles (DiscoverX, #93-1087), respectively. The full-length human GLP1R (NP_002053.3) with a C-terminus fusion to a small b-gal fragment called enzyme donor or ProLink (PK) (i.e., hGLP1R-PK) was then engineered into HEK293/b-arrestinl-EA cells and HEK293/b-arrestin2-EA cells to generate the cell lines referred herein as HEK293/b-arrestin1/hGLP1R and HEK293/b-arrestin2/hGLP1R. […]
For b-arrestin 1 and b-arrestin 2 recruitment assays, after a 1-hour incubation at 37° C., PathHunter Detection Reagent (Eurofins DiscoverX, #93-0001) was added to the wells followed by a 1-hour incubation at room temperature. RLUs were measured on EnVision Plate Reader (Perkin Elmer).
as §1

T1 sequence (P43220 24-463): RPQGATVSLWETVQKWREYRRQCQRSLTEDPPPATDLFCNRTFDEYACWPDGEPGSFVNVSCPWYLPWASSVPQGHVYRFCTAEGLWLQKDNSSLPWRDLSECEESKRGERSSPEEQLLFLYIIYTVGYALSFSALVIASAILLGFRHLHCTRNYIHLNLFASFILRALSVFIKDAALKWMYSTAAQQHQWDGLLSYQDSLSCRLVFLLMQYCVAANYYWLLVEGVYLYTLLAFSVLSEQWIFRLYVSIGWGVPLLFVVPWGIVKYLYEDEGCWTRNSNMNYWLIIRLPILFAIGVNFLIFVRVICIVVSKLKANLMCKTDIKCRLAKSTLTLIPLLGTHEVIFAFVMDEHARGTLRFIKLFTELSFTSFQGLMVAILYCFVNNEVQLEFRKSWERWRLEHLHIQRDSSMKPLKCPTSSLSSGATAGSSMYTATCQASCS

B1: REGN15869-M3190 (conjugate)
heavy: [… about 100 residues …]GLIAPRPMGFDYWGQGTLVTVSSASTKGPSVFPLAPCSRSTSESTAALGCLVKDYFPEPVTVSWNSGALTSGVHTFPAVLQSSGLYSLSSVVTVPSSSLGTKTYTCNVDHKPSNTKVDKRV[… human IgG4 Fc with S228P (EU numbers) …]
light: LLQGSGDIQMTQSPSSVSASVGDRVTITCRASQGINSWLAWYQQKPGKAPKLLIYAASSLESGVPSRFSGSGSGTDFTLTISSLQPEDFATYYCHQADSFPYTFGQGTKLEIKRTVAAPSVFIFPPSDEQLKSGTASVVCLLNNFYPREAKVQWKVDNALQSGNSQESVTEQDSKDSTYSLSSTLTLSKADYEKHKVYACEVTHQGLSSPVTKSFNRGEC
As for B1, the “Percent body weight change from day 0 (mean)” value in assay [1] (week 1) was −7.9*** %; in assay [1] (week 2), −9.5* %; in assay [1] (week 4), −5.3%; in assay [1] (week 8) it was 7.2%. Further, the “body weight (percent change from day 0)” value in assay [1] (25 mg/kg single s.c. dose on day 0, weeks 1, 2, 4, 6, 8) is “significant reductions in body weight were observed at weeks 1 and 2 post-administration, but other time points did not reach significance”. Moreover, the EC50 in the assay with human GLP1R [2] (independent experiments A, B, C, read-out: EC50 (M), CRE-dependent reporter activity, HEK293/CRE-Luc/hGLP1R) was 1.72e-10 M; with human GLP1R [3] (independent experiments A, B), 15.3 nM. In addition, in the assay with human GLP1R [2] (relative to GLP-1), the “Emax (% GLP-1), CRE-dependent reporter activity, HEK293/CRE-Luc/hGLP1R” value amounted to 93.7 % GLP-1. The “Emax (% GLP-1), b-Arrestin2 recruitment, HEK293/b-arrestin2/hGLP1R” value with human GLP1R [3] (relative to GLP-1) worked out at 99.7 % GLP-1.
